# Patent US11541030B2, “Methods for the treatment of inflammation associated with infection” (NOXOPHARM LIMITED, priority 2020, dated 2023)
# System: Semliki Forest virus (SFV)
# Details: 10 μM IDX 72 hours, SFV MOI of 2, 24 hours
structure (smiles),measurement,value
"Oc1ccc(C2=Cc3ccc(O)cc3OC2)cc1 [IDX, 2H-1-Benzopyran-7-0,1,3-(4-hydroxyphenyl)]",sensitisation of cells to SFV infection,did not sensitize
